Source: PubChem BioAssay AID488969 (Vanderbilt High Throughput Screening Facility, 2010)
The full ranking holds about 110,000 compounds; the median of “z-score” is about -0.1, and the highest 2% start at about 2. The list shows a part of the results. The source made the active and inactive calls.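 The calls were made as follows: active = z-score in the third read window above 3 or below -3; inactive = the rest.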

Target: Metabotropic glutamate receptor 8 (Rattus norvegicus) (UniProt P70579)
Assay: mGluR8 Gi/Go-coupled signaling modulation – cell-based, rat, thallium flux, HTS, primary screen (AID 488969)
Conditions: HEK293 rat mGluR8, GIRK (G protein-gated inwardly rectifying potassium channel) thallium flux, FluoZin2; at 10 µM; stronger effect = higher value; submaximal glutamate (EC20) added with thallium

Sequence of UniProt P70579 (P70579 whole entry, looked up): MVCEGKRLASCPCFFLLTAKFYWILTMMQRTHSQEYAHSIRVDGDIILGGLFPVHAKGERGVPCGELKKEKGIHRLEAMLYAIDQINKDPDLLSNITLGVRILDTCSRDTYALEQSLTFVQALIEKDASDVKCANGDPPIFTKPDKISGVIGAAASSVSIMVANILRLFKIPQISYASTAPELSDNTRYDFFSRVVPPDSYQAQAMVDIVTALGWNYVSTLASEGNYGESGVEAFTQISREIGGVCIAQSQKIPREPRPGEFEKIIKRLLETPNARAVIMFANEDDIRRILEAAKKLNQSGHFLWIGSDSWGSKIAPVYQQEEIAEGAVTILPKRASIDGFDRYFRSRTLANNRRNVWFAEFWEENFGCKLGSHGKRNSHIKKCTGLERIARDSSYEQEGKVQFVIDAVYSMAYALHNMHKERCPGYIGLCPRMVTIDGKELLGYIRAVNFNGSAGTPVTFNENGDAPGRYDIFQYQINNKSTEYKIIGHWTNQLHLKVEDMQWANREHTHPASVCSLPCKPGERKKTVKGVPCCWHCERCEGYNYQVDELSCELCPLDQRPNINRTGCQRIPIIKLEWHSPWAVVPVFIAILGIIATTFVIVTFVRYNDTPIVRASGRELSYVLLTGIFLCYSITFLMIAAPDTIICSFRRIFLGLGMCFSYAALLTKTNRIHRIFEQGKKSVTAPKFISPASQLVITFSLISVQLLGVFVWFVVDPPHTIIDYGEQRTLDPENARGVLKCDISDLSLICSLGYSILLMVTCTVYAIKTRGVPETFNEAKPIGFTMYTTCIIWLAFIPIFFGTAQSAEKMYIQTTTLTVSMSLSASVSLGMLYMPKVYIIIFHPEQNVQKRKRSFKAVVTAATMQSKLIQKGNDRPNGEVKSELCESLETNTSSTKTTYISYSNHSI

Compared with `CC1(C)CC(=O)C=C(NCc2cccnc2)C1`, `COC(=O)C1=C(C)NC2=C(C(=O)CC(C)(C)C2)C1c1cn(Cc2ccc(Br)cc2)nc1-c1ccccc1` (stereo unspecified) is higher in z-score: -0.443 for the first, -0.348 for the second.

Compared with `O=C(Oc1ccc(C(=S)N2CCOCC2)cc1Br)c1ccccc1F`, `CCOc1ccc(C(=O)Nc2ccccc2N2CCOCC2)cc1` is higher in z-score: 0.567 for the first, 0.836 for the second.

Compared with `O=[N+]([O-])c1ccc(O)c(/C=N/Nc2ccc(Cl)nn2)c1`, `CC(C)Cc1nnc(NC(=O)c2ccc([N+](=O)[O-])cc2)s1` is higher in z-score: -0.395 for the first, -0.151 for the second.

First: Nc1c(C(=O)Nc2ccccc2F)sc2nc(-c3ccco3)ccc12
Second: COc1ccccc1NC(=O)c1sc2ncn(Cc3cccc(C)c3)c(=O)c2c1C
The z-score of the first is lower: -0.167 for the first, -0.0638 for the second.

Going from `COCCNC(=O)c1ccccc1NC(=O)c1cc(OC)cc(OC)c1` to `Cc1cc(C)n2ncc(C(=O)NCCc3ccccc3)c2n1`, the z-score rises from -0.244 to 0.497.

First: COc1ccc(S(=O)(=O)N2CCOCC2)cc1C(=O)Nc1cc(C)on1
Second: COc1ccc(/C=C/C(=O)NC2CCCCCCC2)cc1S(=O)(=O)N1CCOCC1
The z-score of the first is higher: 0.32 for the first, -0.052 for the second.

Going from `CC12CCC(C(=O)NC3CCCC3)(CC1=O)C2(C)C` (stereo unspecified) to `O=C(COC(=O)c1ccccc1NC(=O)c1ccco1)NC1CCCCC1`, the z-score falls from 0.791 to -0.275.

First: CCCc1nnc(NC(=O)CCC(=O)N2CCN(c3ccccn3)CC2)s1
Second: Cc1cccc(C)c1OCc1nnc(NC(=O)CSc2ccc(Cl)cc2)s1
The z-score of the first is lower: -0.269 for the first, 0.123 for the second.

Compared with `CCOC(=O)CN1C(=O)S/C(=C/c2cc(C)n(-c3ccccn3)c2C)C1=O`, `COCCn1c(C)cc(C(=O)COc2nc3ccccc3nc2C)c1C` is lower in z-score: -0.221 for the first, -0.493 for the second.

Compared with `COC(=O)c1cc(Br)c(=O)n(-c2ccc(OC)cc2)c1`, `COc1ccc(-n2cnnc2)cc1` is higher in z-score: -0.609 for the first, 0.391 for the second.

First: NNC(=O)CN1C(c2ccccc2Br)=Nc2ccc(Br)cc2C1c1ccccc1 (stereo unspecified)
Second: O=C(NCCOc1ccc(F)cc1)c1ccccc1SCc1ccccc1
The z-score of the first is higher: -0.154 for the first, -0.227 for the second.

First: COc1ccc(/C=N/NC(=O)C2c3ccccc3Oc3ccccc32)c(OC)c1
Second: Cc1ccc(/C=N/NC(=O)C2=NNC(c3ccccc3)(c3ccccc3)C2)c(O)c1
The z-score of the first is lower: -0.0101 for the first, 0.221 for the second.

Compared with `CCOC(=O)c1ccc(Nc2nc(-c3cccnc3)nc3ccccc23)cc1`, `Cc1cc(NS(=O)(=O)c2ccc(NC(=O)c3cc(-c4cccnc4)nc4ccc(Cl)cc34)cc2)no1` is lower in z-score: 0.0187 for the first, -0.139 for the second.

Compared with `O=C(Nc1cc(C(=O)N2CCCC2)ccc1N1CCCC1)c1ccccc1`, `Cc1ccc2c(c1)sc1ncc(NC(=O)c3ccccc3)c(=O)n12` is higher in z-score: -1.7 for the first, 0.0611 for the second.

Going from `CCC(Cc1ccccc1)NC(=O)C1CCC(CNc2c(N3CCCC3)c(=O)c2=O)CC1` (stereo unspecified) to `CC(C)NC(=O)NS(=O)(=O)c1cnccc1N1CCCCC1`, the z-score falls from 0.312 to 0.161.

First: c1ccc(COc2cccc(CNCc3cccs3)c2)cc1
Second: Cc1nnc(SCc2ccccc2F)n1NCc1cccs1
The z-score of the first is higher: 0.54 for the first, 0.288 for the second.

First: O=C(CCC(=O)c1cccs1)OCc1nc2ccccc2s1
Second: COC(=O)Cn1c(=NC(=O)c2nc3ccccc3s2)sc2cc(S(N)(=O)=O)ccc21
The z-score of the first is higher: 0.372 for the first, -0.309 for the second.

Going from `CCSc1nnc(-c2cnn(-c3ccccc3)c2-n2cccc2)n1C` to `CCN(CC)C(=O)c1cnn(-c2ccccc2)c1NC(=O)c1cccs1`, the z-score falls from -0.0808 to -0.27.

Going from `COc1ccc(Br)cc1CN(C)CC(=O)Nc1c(Cl)ccc(C)c1Cl` to `COc1ccccc1NC(=O)CN(C)S(=O)(=O)c1cc(C)ccc1OC`, the z-score rises from -0.294 to -0.253.

Going from `COc1ccc(S(=O)(=O)Nc2cccc(SC)c2)cc1OC` to `COc1ccc(C2=CC(c3ccc(OC)c(OC)c3)NC(=S)N2)cc1` (stereo unspecified), the z-score falls from -0.0387 to -0.0454.

Going from `CCN(CC)CCOC(=O)CCc1cccc2ccccc12` to `C=CCn1c(SCC(=O)Nc2cccc3ccccc23)nnc1-c1cnccn1`, the z-score falls from 0.479 to -0.29.

First: Cc1ncoc1C(=O)Nc1cccc(Cl)c1
Second: Cc1nc(NC(=O)COc2ccccc2)sc1C(=O)Nc1cccc(Cl)c1
The z-score of the first is lower: -0.307 for the first, 0.144 for the second.

Going from `Cc1ccsc1C1Nc2ccccc2C(=O)N1O` (stereo unspecified) to `CC1CC2=C(C(=O)O1)C(c1ccccc1)Nc1ccccc1N2` (stereo unspecified), the z-score rises from -0.218 to -0.161.

First: CCN(CCCNC(=O)C1CCC(=O)N1C(C)C)c1cccc(C)c1 (stereo unspecified)
Second: CC(C)CNC(=O)C(=O)Nc1ccc(N(C)C)cc1
The z-score of the first is lower: -0.386 for the first, -0.148 for the second.

First: CCC(=O)Nc1ccc(NC(=S)NC(=O)/C=C/c2ccccc2)cc1
Second: CC(=O)c1ccc(NC(=O)c2cnn3ccccc23)cc1
The z-score of the first is higher: -0.0712 for the first, -0.521 for the second.

Compared with `c1ccc(C(c2c[nH]c3ccccc23)c2c[nH]c3ccccc23)nc1`, `O=C(Nc1ccccc1Sc1ccccc1)c1ccccc1` is lower in z-score: 0.105 for the first, -0.698 for the second.

Going from `CCSc1nc2c([nH]c3ccccc32)c(=O)n1C` to `Cc1[nH]c2ccccc2c1[C@H]1[C@@H](CC#N)C1(C)C`, the z-score falls from -0.536 to -0.661.

Going from `CO/N=C/c1ccc(N2CCN(C(=O)c3ccc(Cl)cc3Cl)CC2)c([N+](=O)[O-])c1` to `Cc1cccc(Nc2nnc(-c3ccc(N4CCOCC4)c([N+](=O)[O-])c3)c3ccccc23)c1`, the z-score falls from -0.166 to -2.11.

Going from `CC(C)CNC(=O)c1cc2nc(C3CC3)cc(C(F)(F)F)n2n1` to `O=C(Cn1nc(C(F)(F)F)c2c1CCCCC2)N1CCOCC1`, the z-score rises from -0.256 to -0.228.

Compared with `CCc1nc2c(c(=O)c3ccccc3n2C)c(=O)n1CCc1ccc(OC)cc1`, `COc1ccc(-c2nnc(N3CCCCC3)c3ccccc23)cc1` is lower in z-score: 0.183 for the first, -0.595 for the second.

Compared with `CC(=O)Nc1ccc2c3c(cccc13)CC2`, `O=C(Nc1cccc2cccnc12)c1ccc(Br)o1` is higher in z-score: -0.196 for the first, 0.412 for the second.

Compared with `CCOc1ccccc1NC(=O)c1ccc(S(=O)(=O)N(C)C)cc1`, `Cc1ccc(NS(=O)(=O)c2cc(C(=O)NCc3ccccn3)ccc2Cl)cc1` is lower in z-score: -0.0734 for the first, -0.139 for the second.

First: CCOc1ccc2[nH]c(C)c(CN3CCOCC3)c(=O)c2c1
Second: O=c1[nH]c2ccc(Br)cc2c(-c2ccccc2)c1CN1CCOCC1
The z-score of the first is higher: -0.182 for the first, -0.651 for the second.

First: COc1ccc(C(C)n2c(C)c3c(C)nnc(C)c3c2C)cc1 (stereo unspecified)
Second: COc1ccc(Nc2nnc(SCC(=O)c3cc(C)n(CC4CCCO4)c3C)s2)cc1 (stereo unspecified)
The z-score of the first is higher: -0.0365 for the first, -0.444 for the second.

Compared with `Cc1oc2cc(O)cc(C)c2c(=O)c1-c1cnn(-c2ccccc2)c1`, `CCOC(=O)c1oc2c(C)c(O)ccc2c(=O)c1-c1nncn1-c1ccccc1` is lower in z-score: -0.0979 for the first, -0.311 for the second.

First: COCc1nnc(NC(=O)c2cc(Cl)ccc2OC)s1
Second: COCCNC(=O)CNS(=O)(=O)c1ccc2nc(C)sc2c1
The z-score of the first is higher: 0.193 for the first, -0.46 for the second.

Going from `Cc1ccc(S(=O)(=O)N/N=C\c2cn(-c3ccccc3)nc2-c2ccccc2)cc1` to `Cc1oc(-c2ccccc2)cc1C(=O)Nc1ccccc1`, the z-score rises from 0.107 to 0.178.

Compared with `CC1(C)CC(=O)C2=C(C1)N(CC1CCCO1)C(=O)NC2(C(F)(F)F)C(F)(F)F` (stereo unspecified), `CCC(C)(C)c1ccc(OCCN2C(=O)NC(C)(C)C2=O)cc1` is lower in z-score: 1.25 for the first, -0.0536 for the second.

Going from `O=C(Nc1nc2ccccc2s1)C1=NN(c2ccccc2)C(=O)CC1` to `N#Cc1c2c(c(Nc3ccccc3)n3c1nc1ccccc13)CCC2`, the z-score falls from 0.914 to -0.313.

Going from `CC(C)NC(=O)C1CCCN(S(C)(=O)=O)C1` (stereo unspecified) to `CC(=O)Nc1cccc(S(=O)(=O)N2CCCCCC2)c1`, the z-score falls from -0.047 to -0.0871.

Compared with `O=C(Nc1ccc(-c2cn3ccsc3n2)cc1)C1CCCC1`, `Cc1ccc(NC(=O)/C(=C/c2cccc([N+](=O)[O-])c2)NC(=O)C2CCCCC2)c(C)c1` is lower in z-score: 0.166 for the first, -0.0436 for the second.

Compared with `CC(C)c1ccc(NC(=O)CSc2ncccc2C(=O)Oc2cccc([N+](=O)[O-])c2)cc1`, `O=C(CCSc1nnc2ccccn12)Nc1ccc(F)cc1` is higher in z-score: -0.191 for the first, 0.126 for the second.

First: Cc1ccc(S(=O)(=O)N[C@@H](C)C(=O)N2CCC(C(=O)N3CCC[C@H]3C(=O)O)CC2)cc1
Second: Cc1cc(C)c(S(=O)(=O)N2CCN(CCO)CC2)c(C)c1
The z-score of the first is higher: -0.249 for the first, -0.769 for the second.

Going from `c1ccc2[nH]c(NC3=NCCC3)nc2c1` to `Cc1ccc(-c2nnc(NCc3nc4ccccc4[nH]3)c3ccccc23)cc1S(=O)(=O)N1CCCCC1`, the z-score falls from 0.96 to -0.412.

First: CC12CN3CC(C)(CN(C1)C3c1ccc3c(c1)OCO3)C2=O (stereo unspecified)
Second: COc1ccc2c(c1)CCCC21NC(=O)NC1=O (stereo unspecified)
The z-score of the first is higher: 0.444 for the first, -0.347 for the second.

First: C=CCC(C)(NCc1ccccc1)c1ccco1 (stereo unspecified)
Second: Cc1ccccc1OCC(O)Cn1nnc2ccccc21 (stereo unspecified)
The z-score of the first is higher: -0.0531 for the first, -0.244 for the second.

Compared with `O=[N+]([O-])c1ccc(N2CCCC2)cc1NC(c1ccccc1)c1ccccc1`, `CCC(C(=O)c1ccccc1)N(C(=O)c1ccccc1Cl)N1C(=O)C2C3C=CC(C3)C2C1=O` (stereo unspecified) is higher in z-score: -1.03 for the first, -0.0769 for the second.

Going from `COc1ccc2nc(NC(=O)Cn3cnc4c(=O)n(C)c(=O)n(C)c43)sc2c1` to `CCC(C)NC(=O)CC(c1ccc(OC)cc1)n1cccc1` (stereo unspecified), the z-score falls from 0.612 to -0.148.

First: CC(C)CNC(=O)C(=O)N/N=C/c1cccs1
Second: CC(C)(C)NC(=O)COC(=O)Cc1ccc(Cl)cc1
The z-score of the first is lower: 0.233 for the first, 0.486 for the second.

First: Nc1nc(SCC(=O)NCc2ccccc2Cl)[nH]c(=O)c1NC(=O)c1ccccc1F
Second: Cc1nc2ccccn2c1/C(O)=C1\C(=O)C(=O)N(CCN2CCOCC2)C1c1ccncc1 (stereo unspecified)
The z-score of the first is lower: -0.478 for the first, -0.0476 for the second.

First: CCOC(=O)CSc1nc(C)c(C(=O)OCC)s1
Second: CCOC(=O)C1=C(c2ccccc2)O/C(=C(\C(=O)OC)C(F)(F)F)S1
The z-score of the first is higher: 0.58 for the first, -0.566 for the second.

Compared with `Cc1cccc(C)c1Nc1nnc(SCc2cc([N+](=O)[O-])cc3c2OCOC3)s1`, `COC(=O)c1c(C)n(-c2ccc(C)cc2)c2ccc(O)cc12` is higher in z-score: -0.177 for the first, -0.121 for the second.

First: CCCCC(=O)NC1=C(C(=O)OC)SCC1
Second: CCN(CC)c1ccc(C(=O)OCC(=O)Nc2sccc2C#N)cc1
The z-score of the first is higher: 0.909 for the first, -0.224 for the second.

Going from `NC1=NS(=O)(=O)NC1c1ccc(Cl)cc1` (stereo unspecified) to `CCCCC(CC)C(=O)Nc1ccc(C#N)cc1` (stereo unspecified), the z-score falls from 0.00171 to -0.113.

Going from `COc1ccc(C(=O)/C=C/c2ccc(OC)c(COc3ccc(F)cc3)c2)cc1` to `CCCOc1ccc(N2C(=O)CC(NCCNc3ccc(S(=O)(=O)CC)cc3)C2=O)cc1` (stereo unspecified), the z-score rises from -0.119 to 0.265.

With `CCN(CC)S(=O)(=O)c1cccc(-c2n[nH]c(=S)n2/N=C/c2ccc(C(=O)OC)cc2)c1` the z-score was active: 3.19.
